The campaign covered roughly 350,000 compounds. About 260 (0.074%) were called active. Inconclusive means that the source gave no clear call. Such entries were picked first, then a sample of the others. Calls come from the whole dose curve; as a rule, active = well fitted inhibition curve with a large enough effect; inconclusive = small, poorly fitted or top-dose-only effect; inactive = no such curve, though single readings can be large or run the other way. Potencies beside an inconclusive call are fits to weak or partial responses and may not hold up.
Target: Ferritin light chain (Equus caballus) (UniProt P02791)
UniProt P02791, sequence (P02791 whole entry, looked up): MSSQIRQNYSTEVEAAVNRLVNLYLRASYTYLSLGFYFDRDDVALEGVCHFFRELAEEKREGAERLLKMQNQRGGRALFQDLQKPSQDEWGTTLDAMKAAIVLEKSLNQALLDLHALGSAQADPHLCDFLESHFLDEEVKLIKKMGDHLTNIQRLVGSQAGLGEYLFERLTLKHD
Test: qHTS Assay for Identification of Novel General Anesthetics; note: nearly all actives have a fitted effect of over 20% in size
Settings: apoferritin/1-aminoanthracene competitive binding, fluorescence; activity change, negative = displacement: at 77.5 µM (top of the series)
Method in brief: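 Read-out: endpoint 1-AMA fluorescence, excitation 380 nm and emission 535 nm, after compounds sit 10 min at room temperature with 10 uM horse-spleen apoferritin in 50% saturated 1-AMA/PBS. Values come from four-parameter Hill fits.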
% is set by controls: 0 for no effect and ±100 for the full control effect; potency is the fitted concentration of half-maximal effect; tags give direction and shape of the fitted curve.

Activity change, negative = displacement, inactive:
Cc1cc(C(=O)N/N=C/c2sccc2C)no1 -3.92%, CCCCN(C)C(=O)c1nc2ccccn2c1CN1CCN(c2cnccn2)CC1 -6.64%, COc1ccc(NC(=S)N(CCCN2CCOCC2)Cc2cn(C)c3ccccc23)cc1 -7.61%, C=C[C@]1(C)CC(=O)[C@@]2(O)[C@@]3(C)C(O)CCC(C)(C)C3C(O)C(OC(C)=O)[C@@]2(C)O1 (some centres undefined) 2.26%, C[C@H](N)c1nnc(SCC(=O)c2ccc(Cl)cc2)o1 -11.9%, C=CCn1c(SCc2nc3sc(C(=O)O)c(C)c3c(=O)[nH]2)nnc1-c1ccccc1 -2.48%, O=C(C1CC1)N1CCN(c2ccc([N+](=O)[O-])cc2-n2cccc2)CC1 0.195%, CCOc1ccc(NC(=O)c2cc(=O)c3ccc(C)c(C)c3o2)cc1 -8.03%, Cn1c(/C=N/n2cnnc2)nc2ccccc21 6.23%, Cc1ccc(S(=O)(=O)N2CCN(C(=O)c3ccco3)CC2)c(C)c1 5.99%, CCC1CN(C(=O)Nc2ccc(C)c(F)c2)c2ccccc2S1 (centres undefined) 5.14%

Potency, inconclusive:
Cn1cc(/C(Cc2ccccc2)=N\O)c2ccccc21 12.6 µM [inhibitor, partial curve], Cc1cc(C(F)(F)F)c2c(=O)[nH]c(=O)n(Cc3ccccc3)c2n1 35.5 µM [inhibitor, partial curve], COC(=O)[C@H]1CC=C[C@H]2CCN(Cc3ccc(Cl)c(Cl)c3)C(=O)[C@@H]12 14.1 µM [inhibitor, partial curve], CC(C)C1CC(c2csc(N)n2)CCO1 (centres undefined) 25.1 µM [inhibitor, partial curve], Cc1ccc(N=Nc2c(N)nn(-c3ccccc3)c2N)cc1 31.6 µM [inhibitor, partial curve], CC(=O)c1ccc(-n2nnnc2SCC(=O)Nc2cccc(NC(=O)c3ccco3)c2)cc1 39.8 µM [inhibitor, partial curve], CN1/C(=C/C(=O)c2nc(S(C)(=O)=O)ncc2Cl)C(C)(C)c2ccccc21 35.5 µM [inhibitor, partial curve], O=C(NCC1CCCO1)c1c[nH]c2ccc(S(=O)(=O)Nc3cccc(C(F)(F)F)c3)cc2c1=O (centres undefined) 44.7 µM [inhibitor, single point], Cc1ccc(NC(=O)c2nc[nH]c2C(=O)N[C@@H](C)C(=O)OC(C)(C)C)cc1 50.1 µM [inhibitor, single point], CC(OC(=O)c1ccc(Cl)c(S(=O)(=O)N2CCCC2)c1)C(=O)NC1CCCCC1C (centres undefined) 25.1 µM [inhibitor, partial curve], Cc1cccc(CSCCNC(=O)CSCc2ccc([N+](=O)[O-])cc2)c1 35.5 µM [inhibitor, partial curve], CCOc1cc(S(=O)(=O)N(CC)CC)ccc1Br 39.8 µM [inhibitor, partial curve], CC(C)(C)c1ccc(-c2noc(CNC(=O)c3ccco3)n2)cc1 28.2 µM [inhibitor, single point], CC1CCCN(c2ccc(C(=O)Nc3ccc4c(c3)OCO4)cc2[N+](=O)[O-])C1 (centres undefined) 20 µM [inhibitor, partial curve], Cc1cc(C(=O)COC(=O)CCCN2C(=O)c3ccccc3C2=O)c(C)n1C 25.1 µM [inhibitor, partial curve], O=C(C=C1SCCS1)/C=C/c1ccco1 39.8 µM [inhibitor, partial curve], CN(C(=O)CC(=O)Nc1ccc(Cl)c(Cl)c1)c1ccccc1 15.8 µM [inhibitor, partial curve], O=C(COC(=O)c1cccnc1Cl)c1ccccc1 22.4 µM [inhibitor, partial curve], CC(C)(c1ccccc1)c1ccc(OCCCN2CCNCC2)cc1 25.1 µM [inhibitor, partial curve], CCc1c(-c2ccccc2)nc2ccccc2c1C(=O)NCc1ccc(C)cc1 11.2 µM [inhibitor, partial curve], COc1cccc(CN2CCNC(=O)C2CC(=O)NC2Cc3ccccc3C2)c1 (centres undefined) 50.1 µM [inhibitor, single point], Cc1ccc(OCCn2nnc3sc4c(c3c2=O)CCC(C)C4)cc1 (centres undefined) 31.6 µM [inhibitor, single point], CN(Cc1ccccc1)C(=O)[C@H](Cc1ccc2ccccc2c1)NC(=O)[C@@H]1CCCN1C(=O)Nc1ccccc1[N+](=O)[O-] 12.6 µM [inhibitor, partial curve], OCC1CCCN(C(=S)Nc2ccc(Nc3ccccc3)cc2)C1 (centres undefined) 35.5 µM [inhibitor, single point], Cc1cc(-c2ccc(C(C)C)c(S(=O)(=O)NCCN3CCC(C)CC3)c2)on1 12.6 µM [inhibitor, partial curve], COc1ccc(S(=O)(=O)N2CCSC2)cc1C 15.8 µM [inhibitor, partial curve], c1ccc2c(c1)nnn1c3ccccc3nc21 31.6 µM [inhibitor, single point], Cc1ccc(S(=O)(=O)N(C)c2nonc2C)cc1 28.2 µM [inhibitor, single point], CC(C)(C)c1ccc(/C=C/C(=O)Nc2cccnc2)cc1 20 µM [inhibitor, partial curve], CCCc1ccc(-c2cc(NC(=O)CSc3nnc(N)s3)n(-c3ccccc3)n2)cc1 35.5 µM [inhibitor, single point], O=C(COc1ccccc1-c1ccccc1)N/N=C/c1ccccn1 31.6 µM [inhibitor, partial curve], CCOc1ccc(-c2nnc(SCC(=O)NCc3ccccc3)o2)cc1 22.4 µM [inhibitor, partial curve]

Potency, active:
O=C(c1cccs1)n1nc(-c2ccco2)nc1SCc1ccccc1 28.2 µM

Reference: PubChem BioAssay AID485281 (National Center for Advancing Translational Sciences (NCATS), 2010)
